Source: PubChem BioAssay AID686970 (National Center for Advancing Translational Sciences (NCATS), 2013)
Out of some 360,000 compounds screened, about 6,000 (1.7%) were called active. The inconclusive results got no clear call from the source; some entries with a clear call stand among them for comparison. The call rests on the fitted dose curve; in most records, active means well fitted cell-killing curve with a large enough effect; inconclusive means small, poorly fitted or top-dose-only effect, or effect the other way; inactive means flat fitted curve, though single readings scatter. Potencies of inconclusive entries are left out as doubtful fits.

assay: qHTS for induction of synthetic lethality in tumor cells producing 2HG: qHTS for the HT-1080-NT fibrosarcoma cell line; details: HT-1080-NT fibrosarcoma viability, CellTiter-Glo ATP luminescence, 48 h; activity, negative = less viability: at 46.1 µM (top of the series) unless noted;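 further: NT is the 2HG producing partner of a matched IDH1 knockdown line; nearly all actives have a fitted effect of over 55% in size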;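 on activity, negative = less viability: 0% = DMSO-treated cells and -100% = media-only wells without cells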
In short: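 HT-1080-NT; 750 cells/well; 5% FBS RPMI; 48 h compound, 37 degrees C; CellTiter-Glo luminescence; curve fitting and curve-class assignment.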
Potency means the concentration at half of the fitted maximal effect; tags describe the fitted curve by direction and shape.

SMILES	Potency	activity, negative = less viability
Cc1ccc(C(O)(c2ccccc2)c2ccccc2C(C)N(C)C)c(C)c1 (stereo not drawn)	inconclusive [cytotoxic, single point]	–
CC(CN(C)C)CN1c2ccccc2Sc2ccccc21 (stereo not drawn)	active: 16.4 µM	–
CCN(C(=O)CSc1nnc(-c2ccc3c(c2)OCO3)o1)C1CCS(=O)(=O)C1 (stereo not drawn)	inactive	–
COc1cccc(NS(=O)(=O)c2ccc3[nH]cc(C(=O)NC4CC4)c(=O)c3c2)c1	inconclusive [cytotoxic, partial curve]	–
CC(=O)C1=CCC(c2ccc(Cl)cc2)N(S(=O)(=O)c2ccccc2C)C1 (stereo not drawn)	inconclusive [cytotoxic, single point]	–
CN(C)c1ccc(S(=O)(=O)N2CCCCC2)cc1NC(=O)C1=NN(c2ccccc2)C(=O)CC1	inactive	–
CC1Oc2ccccc2C=C1/C=N/Nc1ccc(C(=O)O)cc1 (stereo not drawn)	inconclusive [cytotoxic, single point]	–
CC(=O)Nc1cc(-c2ccc(F)cc2)cn2c(-c3ccc(F)c(Cl)c3)cnc12	inconclusive [cytotoxic, partial curve]	–
COc1ccc(C(=O)Nc2ccc(S(=O)(=O)N3CCCC3)cc2)c(OC)c1	inactive	–
Cc1ccccc1-c1cnc(C(O)c2ccc(Cl)cc2C)[nH]1 (stereo not drawn)	inconclusive [cytotoxic, single point]	–
CCCCn1c(SCC(N)=O)nc2sc3c(c2c1=O)CCC3	inactive	–
CCCN1CCC(=O)N(CCSc2ccc(OC)cc2)CC1	inconclusive [cytotoxic, partial curve]	–
COc1ccc([N+](=O)[O-])cc1N(CC(O)CN(CC(C)C)CC(C)C)S(=O)(=O)c1ccccc1 (stereo not drawn)	inconclusive [cytotoxic, single point]	–
CCCC(=O)N1CCCC1(C)C(=O)Nc1cc(C)ccc1C (stereo not drawn)	–	inconclusive: 30.9%
COc1ccc(Cl)cc1-c1cc(C(=O)Nc2ccccc2)[nH]n1	inconclusive [cytotoxic, single point]	–
CCOc1ccccc1C(=O)Nn1c(C2CCC2)nc2ccccc2c1=O	inconclusive [cytotoxic, full curve, poor fit]	–
N#CC1=C(N)N(c2ncn[nH]2)C2=C(C(=O)CCC2)C1c1ccccc1 (stereo not drawn)	–	inconclusive: 31.2%
CCCCN(C)C(=O)c1nc2ccccn2c1CN1CCC[C@H]1C(=O)OC	inactive	–
O=C(N/N=C/c1cccc(Oc2ccc([N+](=O)[O-])cc2[N+](=O)[O-])c1)c1cncc(Br)c1	inconclusive [cytotoxic, single point]	–
CC1(CO)CCCC1NCCNC1CCCC1(C)CO (stereo not drawn)	inactive	–
Cc1cccc(N2CCN(C(=O)c3ccc(Cl)c(NC4=NC5CS(=O)(=O)CC5S4)c3)CC2C)c1 (stereo not drawn)	inactive	–
O=C(CN1CCN(Cc2ccc(Cl)cc2)C1=O)NCCCN1CCN(c2ccc(F)cc2)CC1	inconclusive [cytotoxic, single point]	–
O=C(/C(N=Nc1cccc(C(F)(F)F)c1)=C(/O)c1cccs1)C(F)(F)F	inconclusive [cytotoxic, single point]	–
CO/N=C/C(NC(=O)c1ccc(C(F)(F)F)cc1)C(=O)OC (stereo not drawn)	inconclusive [rising, single point]	–

SMILES	Potency	activity, negative = less viability
Cc1ccc(-n2cc(CN3CCN(Cc4nccn4C)CC3)c(-c3cccc(C)c3)n2)cc1	inactive	–
O=c1c2ccccc2nnn1CCO	inactive	–
C(=N\Nc1ncnc2sc3c(c12)CCC3)/c1ccncc1	inconclusive [cytotoxic, partial curve]	–
COc1cccc(/C=N/Nc2ccc([N+](=O)[O-])cc2)c1O	inconclusive [cytotoxic, partial curve]	–
Nc1ccc(C(=O)OCC(=O)NC2CC2)cc1[N+](=O)[O-]	inconclusive [rising, single point]	–
COc1ccc(Oc2nccc(OC)c2C#N)cc1	–	inconclusive: 11.5%
Cc1ccc(S(=O)(=O)N2CCOCC2)cc1NC(=O)CNC(C)c1ccccc1 (stereo not drawn)	inactive	–
C=CC[C@@H](CC(=O)N[C@H](CO)Cc1ccccc1)C(=O)N[C@H](COC(=O)[C@@H](CC=C)Cc1ccc(F)cc1)Cc1c[nH]c2ccccc12	inconclusive [cytotoxic, single point]	–
COc1cc(OC)cc(C(=O)NCCSC2CCCCC2)c1	inactive	–
Cc1ccc(-c2nc3ncccn3c2NC2CCCC2)o1	inactive	–
Cc1ccc(C)c(N2CCN(C(=O)c3ccc4nc(-c5ccco5)c(-c5ccco5)nc4c3)CC2)c1	inconclusive [cytotoxic, single point]	–
COc1cccc(NC(=O)[C@H](C)NC(=O)N2CCn3c2nc2ccccc23)c1	inactive	–
CN(C)CCc1cc2c(c3c1ccc1ccccc13)OCO2	inconclusive [cytotoxic, single point]	–
COC(=O)c1ccc(NC(=O)c2cn(-c3cccc(C)n3)cn2)cc1	inconclusive [rising, single point]	–
O=S(=O)(Nc1cc(Sc2ncn[nH]2)c(O)c2ccccc12)c1ccccc1	active: 2.31 µM	–
COc1ccc(N2CCN(C(=O)COC(=O)COc3ccc(C#N)cc3)CC2)cc1	inactive	–
COCCNc1nc(Oc2ccc(Cl)c(Cl)c2)c2sccc2n1	inactive	–
N/C(Cc1ccc([N+](=O)[O-])cc1)=N\OC(=O)c1ccc2ccccc2c1	active: 18.4 µM	–
O=C(NCc1cccnc1)C(=O)NC1CCCCC1	inactive	–
Cc1cc(Br)ccc1OCCCCNC(C)(C)C	active: 13 µM	–
O=C1C2C3C=CC(C3)C2C(=O)N1/N=C/c1cc(Br)cc([N+](=O)[O-])c1O (stereo not drawn)	inconclusive [cytotoxic, single point]	–
O=[N+]([O-])c1ccc(Oc2cccc(Br)c2)c2ccncc12	active: 20.6 µM	–
C=CCSc1nnc(NC(=O)COc2ccccc2)s1	inconclusive [rising, full curve, poor fit]	–
C[C@@H]1CCCCO[C@@H](CN(C)Cc2ccc(Cl)c(Cl)c2)[C@@H](C)CN([C@H](C)CO)C(=O)c2cc(NC(=O)Nc3ccccc3)ccc2O1	inconclusive [cytotoxic, partial curve, poor fit]	–
